Experimental data published in the RNAGym collection of RNA variant scans (doi:10.1073/pnas.2313332121).
Variants at the background level are over-represented here.

B1: TPR 5TU (parent)
chain: GGAUCUUCUCGAUCUAACAAAAAAGACAAAUCUGCCACAAAGCUUGAGAGCAUCUUCGGAUGCAGAGGCGGCAGCCUUCGGUGGCGCGAUAGCGCCAACGUUCUCAACUAUGACACGCAAAACGCGUGCUCCGUUGAAUGGAGUUUAUCAUG

Variants of: B1
Test: polymerase ribozyme fitness, log enrichment relative to wild type (log ratio); higher = more active; in vitro selection for triplet polymerase activity
How it was run: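 Each subunit of a heterodimeric triplet polymerase ribozyme was represented by a PCR-built, transcribed mutant library that underwent triplicate single-round in vitro selection with frozen incubation at −7 °C. Extended constructs were recovered by gel excision, streptavidin-bead capture and RT-PCR, and Illumina sequencing of input and output libraries kept genotypes with ≥10 input reads and ≥1 read per output. Fitness is the logarithm of genotype enrichment relative to wild-type enrichment, from inverse-variance-weighted replicate averages, with a logarithm base of 2.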

Variant | polymerase ribozyme fitness (log ratio)
C38U G74A C95U A121U U139A | ≤ -4.2
C38U G74A G80C C96G U101C C105G G124U C132G A137U | ≤ -4.2
C38U G81A C87G C95U C96A A97G A138C G141U | ≤ -4.2
C38U G83C C132A | ≤ -4.2
C38U G84A U139A | ≤ -4.2
C38U G84U A91U | ≤ -4.2
C38U G88U A91G U109G U134A | ≤ -4.2
C38U G94U U151A | ≤ -4.2
C38U G117U | 0.325
C38U U44A G58C G59A G80C G83A A138G | ≤ -4.2
C38U U44A U61A C114U C118U A120U G140A G141A | ≤ -4.2
C38U U45G U55A A60U G71A | ≤ -4.2
C38U U53A G80C A98U A113G G117A G133U A138U | ≤ -4.2
C38U U55A G70C U78C G84U U102G U134A | ≤ -4.2
C38U U56A U78G G133A G136A | ≤ -4.2
C38U U61G C85A G94C C123A | -1.29
C38U U78A U90C G92U C95U A121G | ≤ -4.2
C38U U78G C108U U148A | ≤ -4.2
C38U U82A A91G C105G | ≤ -4.2
C38U U82A U144A C149G | ≤ -4.2
C38U U101G U135A | -0.00114

Variant | polymerase ribozyme fitness (log ratio)
C38U U134G | -2.53
A39C A40G G50C C75A C85G | ≤ -4.2
A39C A40G G62C C103A G143U | ≤ -4.2
A39C A47C C63G G84U A89U G141A | ≤ -4.2
A39C A47G C63U G80A U139A | ≤ -4.2
A39C A47U C95U U146C C149G | ≤ -4.2
A39C A47U G48C G68A C85U A137G U145A | ≤ -4.2
A39C A47U U148G | ≤ -4.2
A39C A49C C85A C99A | ≤ -4.2
A39C A49C G59A G88U U139G | ≤ -4.2
A39C A49G | -3.48
A39C A49U C85G A89C C103G | ≤ -4.2
A39C A49U U56A | ≤ -4.2
A39C A52C G92A C96A | ≤ -4.2
A39C A64C | ≤ -4.2
A39C A64G C75G C85U G124A | ≤ -4.2
A39C A66G G88C | ≤ -4.2
A39C C43A A49C U61A U90G A98U C105U A113U C118U | ≤ -4.2
A39C C43A C87G C108G | ≤ -4.2
A39C C43G C57U G126C | ≤ -4.2
A39C C43U G74A C103G U127A | ≤ -4.2

Variant | polymerase ribozyme fitness (log ratio)
A39C C54A A60C G80U G84A C114A C116G | ≤ -4.2
A39C C54A C72U C85G | ≤ -4.2
A39C C54A U90G A121G A122U C123A G141A | ≤ -4.2
A39C C54U G67U A98G U102G U144G | ≤ -4.2
A39C C54U G71A G83U U109C A119U | ≤ -4.2
A39C C54U G86A C96U G128A U130A U139A | ≤ -4.2
A39C C57A C116U U139C G140U | ≤ -4.2
A39C C75G C85U G124A | ≤ -4.2
A39C C75G G83A G88A C123A | ≤ -4.2
A39C C79A A91C U101G G143C | ≤ -4.2
A39C C85U C99G | ≤ -4.2
A39C C87A | ≤ -4.2
A39C C87A C114U | ≤ -4.2
A39C C87U | -2.12
A39C C87U G94U U101C A147U | ≤ -4.2
A39C C93G C103A C114A | ≤ -4.2
A39C C105U G124A | -2.08
A39C G42A C87G G126A U130A U146G | ≤ -4.2
A39C G42U C93U A97U A137U G140C U146G C149A | ≤ -4.2
A39C G46A A47U U55A A73G G86A A89U A107C G141C | ≤ -4.2
A39C G46A A64G C76A | ≤ -4.2

Variant | polymerase ribozyme fitness (log ratio)
A39C G46A G59U G70C C99A G128A | ≤ -4.2
A39C G48C A73U C93A | ≤ -4.2
A39C G50A C116U | ≤ -4.2
A39C G50C G59C A97U C129A C149U | ≤ -4.2
A39C G50U G71C G86C G112A G136U | ≤ -4.2
A39C G58A A60C A91U G92A C116U A122G | ≤ -4.2
A39C G58U G62C C108G A113U A121C U151G | ≤ -4.2
A39C G62C | ≤ -4.2
A39C G65C U134A U145C | ≤ -4.2
A39C G68A G74U A138G A150C | ≤ -4.2
A39C G71C G83U C95U | ≤ -4.2
A39C G81A G94U A106G A110C G140U | -4.04
A39C G84C G143A | ≤ -4.2
A39C G88C C132A | ≤ -4.2
A39C G133U U148G | ≤ -4.2
A39C U45A G58A G80C G84U C95U C108A | ≤ -4.2
A39C U53A U61A G68U G92A | ≤ -4.2
A39C U53G U55A G143A U148G | ≤ -4.2
A39C U55A C76U C87G | ≤ -4.2
A39C U55A G58A G68A A91C U134C | ≤ -4.2
